From the supplement of paper PMC7125110
This sample is rich in variants without activity.

B1: glmS ribozyme (parent)
chain: AUAAAAGCGCCAGAACUACAGAAAUGUAGUUGACGAGGAGGAGGUUUAUCGAAUUUUCGGCGGAUGCCUCCAAA

How the values were obtained:
Conditions in all cases: with glucosamine-6-phosphate
glucosamine-6-phosphate [1] = variants of: B1; assay: kcat; higher = faster cleavage; RNA array
Procedure, shortened: (§1)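 Barcoded ribozyme variants were transcribed in situ on sequenced MiSeq chips by E. coli RNA polymerase. At 37 °C, a hybridised Cy3 probe tracked them while glucosamine-6-phosphate (40 μM to 10 mM) in HEPES/KCl/Mg(OAc)2 buffer flowed in and tiles were imaged over ~14 h. Per-tile medians of signals normalised to baseline and to non-cleaving reference variants were fit to one- or two-exponential decays, giving kobs. kcat and KM came from weighted Michaelis–Menten fits across concentrations.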

glucosamine-6-phosphate [2] = variants of: B1; assay: self-cleavage kobs at 640 uM GlcN6P; higher = faster cleavage; RNA array
Procedure, shortened: as §1

glucosamine-6-phosphate [3] = variants of: B1; assay: self-cleavage kobs at 40 uM GlcN6P; higher = faster cleavage; RNA array
Procedure, shortened: as §1

glucosamine-6-phosphate [4] = variants of: B1; assay: self-cleavage kobs at 160 uM GlcN6P; higher = faster cleavage; RNA array
Procedure, shortened: as §1

glucosamine-6-phosphate [5] = variants of: B1; assay: self-cleavage kobs at 10000 uM GlcN6P; higher = faster cleavage; RNA array
Procedure, shortened: as §1

glucosamine-6-phosphate [6] = variants of: B1; assay: self-cleavage kobs at 2500 uM GlcN6P; higher = faster cleavage; RNA array
Procedure, shortened: as §1

Variant	kcat (glucosamine-6-phosphate [1])	self-cleavage kobs at 640 uM GlcN6P (glucosamine-6-phosphate [2])	self-cleavage kobs at 40 uM GlcN6P (glucosamine-6-phosphate [3])	self-cleavage kobs at 160 uM GlcN6P (glucosamine-6-phosphate [4])	self-cleavage kobs at 10000 uM GlcN6P (glucosamine-6-phosphate [5])	self-cleavage kobs at 2500 uM GlcN6P (glucosamine-6-phosphate [6])
C10G A15G A52G	< 1e-05 s⁻¹	< 1e-05 s⁻¹	–	–	–	–
G7A C68A	< 1e-05 s⁻¹	–	–	–	–	–
G7C G29C G32A	< 1e-05 s⁻¹	< 1e-05 s⁻¹	< 1e-05 s⁻¹	< 1e-05 s⁻¹	–	–
G29A C50U	< 1e-05 s⁻¹	–	–	–	–	–
A14U C61U	< 1e-05 s⁻¹	–	< 1e-05 s⁻¹	–	–	–
U55A C61A	< 1e-05 s⁻¹	< 1e-05 s⁻¹	< 1e-05 s⁻¹	–	< 1e-05 s⁻¹	–
A14U G38U	< 1e-05 s⁻¹	< 1e-05 s⁻¹	–	–	–	–
G38C C71A	< 1e-05 s⁻¹	–	–	–	< 1e-05 s⁻¹	–
G7U C70U	< 1e-05 s⁻¹	< 1e-05 s⁻¹	–	< 1e-05 s⁻¹	–	–
U49A U56A	< 1e-05 s⁻¹	< 1e-05 s⁻¹	–	–	–	–
A6C G32C U49C	< 1e-05 s⁻¹	–	–	–	–	< 1e-05 s⁻¹
G13U A48G	< 1e-05 s⁻¹	< 1e-05 s⁻¹	< 1e-05 s⁻¹	–	< 1e-05 s⁻¹	–
U54G U56A G63U	< 1e-05 s⁻¹	–	–	< 1e-05 s⁻¹	–	< 1e-05 s⁻¹
G38C G51A	< 1e-05 s⁻¹	–	–	–	< 1e-05 s⁻¹	–
C16A A64C	< 1e-05 s⁻¹	–	< 1e-05 s⁻¹	–	–	–
A6U G51U C71U	< 1e-05 s⁻¹	< 1e-05 s⁻¹	–	–	–	–
G59A C61G	< 1e-05 s⁻¹	–	–	–	< 1e-05 s⁻¹	–
G59A C61U	< 1e-05 s⁻¹	< 1e-05 s⁻¹	< 1e-05 s⁻¹	–	< 1e-05 s⁻¹	–
C8U A36U	< 1e-05 s⁻¹	< 1e-05 s⁻¹	< 1e-05 s⁻¹	< 1e-05 s⁻¹	< 1e-05 s⁻¹	–
A14G G38C	< 1e-05 s⁻¹	–	–	< 1e-05 s⁻¹	–	–
A6U G32A C68U	< 1e-05 s⁻¹	–	< 1e-05 s⁻¹	< 1e-05 s⁻¹	–	–
G29A G38A	< 1e-05 s⁻¹	< 1e-05 s⁻¹	–	–	–	–
C16U G51U	< 1e-05 s⁻¹	< 1e-05 s⁻¹	–	–	< 1e-05 s⁻¹	–
G13A G62C	< 1e-05 s⁻¹	< 1e-05 s⁻¹	< 1e-05 s⁻¹	< 1e-05 s⁻¹	< 1e-05 s⁻¹	< 1e-05 s⁻¹
A33G G38U	< 1e-05 s⁻¹	–	–	–	< 1e-05 s⁻¹	–

Variant	kcat (glucosamine-6-phosphate [1])	self-cleavage kobs at 640 uM GlcN6P (glucosamine-6-phosphate [2])	self-cleavage kobs at 40 uM GlcN6P (glucosamine-6-phosphate [3])	self-cleavage kobs at 160 uM GlcN6P (glucosamine-6-phosphate [4])	self-cleavage kobs at 10000 uM GlcN6P (glucosamine-6-phosphate [5])	self-cleavage kobs at 2500 uM GlcN6P (glucosamine-6-phosphate [6])
C11G G29C	< 1e-05 s⁻¹	–	–	–	< 1e-05 s⁻¹	–
G40U G51U	< 1e-05 s⁻¹	–	< 1e-05 s⁻¹	–	–	–
A6U G63C	< 1e-05 s⁻¹	–	< 1e-05 s⁻¹	< 1e-05 s⁻¹	< 1e-05 s⁻¹	< 1e-05 s⁻¹
A6U U65C	< 1e-05 s⁻¹	< 1e-05 s⁻¹	< 1e-05 s⁻¹	–	–	–
G32U C61A	< 1e-05 s⁻¹	< 1e-05 s⁻¹	–	–	–	–
C50A G60U	< 1e-05 s⁻¹	< 1e-05 s⁻¹	–	–	–	–
C50A G60A	< 1e-05 s⁻¹	–	–	–	–	–
A12C A36U	< 1e-05 s⁻¹	–	< 1e-05 s⁻¹	–	–	–
G13C G37U	< 1e-05 s⁻¹	–	< 1e-05 s⁻¹	–	–	–
U49A C67G	< 1e-05 s⁻¹	–	–	–	–	–
U31C G37C A48G U56A	< 1e-05 s⁻¹	< 1e-05 s⁻¹	–	–	–	< 1e-05 s⁻¹
C34G G66U	< 1e-05 s⁻¹	–	–	–	< 1e-05 s⁻¹	–
C10A U55A	< 1e-05 s⁻¹	–	< 1e-05 s⁻¹	< 1e-05 s⁻¹	–	–
C34A U55G	< 1e-05 s⁻¹	–	–	–	–	–
G7A C11U	< 1e-05 s⁻¹	–	< 1e-05 s⁻¹	–	–	–
G29A G59C	< 1e-05 s⁻¹	–	–	–	–	< 1e-05 s⁻¹
A48C C70G	< 1e-05 s⁻¹	–	< 1e-05 s⁻¹	< 1e-05 s⁻¹	–	–
A36U A53U	< 1e-05 s⁻¹	< 1e-05 s⁻¹	–	–	–	–
G51C C68U	< 1e-05 s⁻¹	–	–	< 1e-05 s⁻¹	–	–
G29C G59A	< 1e-05 s⁻¹	–	< 1e-05 s⁻¹	< 1e-05 s⁻¹	–	–
G13C A39U G40U	< 1e-05 s⁻¹	< 1e-05 s⁻¹	–	–	–	–
A14U G63C	< 1e-05 s⁻¹	–	–	–	< 1e-05 s⁻¹	< 1e-05 s⁻¹
U31C G43U	< 1e-05 s⁻¹	< 1e-05 s⁻¹	–	–	–	–
A36G U47G C71G	< 1e-05 s⁻¹	< 1e-05 s⁻¹	–	–	–	–
G38C G60C	< 1e-05 s⁻¹	–	–	< 1e-05 s⁻¹	–	< 1e-05 s⁻¹
